Assay results taken from patent US20260306644A1, “ANTIBODY RECRUITING MOLECULES FOR THE TREATMENT OF CORONAVIRUS DISEASE-19” (priority 2023, published 2026).
Positions of bridges follow the written chain, without caps; N, C: chain ends. No end group written: not given here.

biological target: SARS-CoV-2 Spike glycoprotein Receptor Binding Domain (RBD) (Severe acute respiratory syndrome coronavirus 2, UniProt P0DTC2); assay: Ligand binding to SARS-CoV-2 Spike glycoprotein Receptor Binding Domain (RBD) by BLI; conditions: biotinylated Spike RBD, 1:1 global fit

Compound | Octet SARS-CoV-2 Spike RBD Protein Binding KD
Ac-QKIYEIMRLCDELGHAEACMRVSDLIYEFMKKGDCAWHLGELVWCT-NH2 (disulfide 10-19, 35-45) [Compound 164] | Weak Binding
CC[C@H](C)[C@H](NC(=O)[C@H](Cc1c[nH]c2ccccc12)NC(=O)[C@H](CCC(=O)O)NC(=O)[C@H](CCCCN)NC(=O)[C@H](CC(=O)O)NC(C)=O)C(=O)N[C@@H](CC(C)C)C(=O)N[C@@H](CCC(N)=O)C(=O)N[C@@H](CCCCN)C(=O)N[C@H](C(=O)N[C@@H](Cc1ccc(O)cc1)C(=O)N[C@@H](CCC(=O)O)C(=O)N[C@H](C(=O)N[C@@H](CCSC)C(=O)N[C@@H](CCCNC(=N)N)C(=O)N[C@@H](CC(C)C)C(=O)N[C@@H](CC(C)C)C(=O)N[C@@H](CC(=O)O)C(=O)N[C@@H](CCC(=O)O)C(=O)N[C@@H](CC(C)C)C(=O)NCC(=O)N[C@@H](Cc1c[nH]cn1)C(=O)N[C@@H](C)C(=O)N[C@@H](CCC(=O)O)C(=O)N[C@@H](C)C(=O)N[C@@H](CO)C(=O)NCCOCCOCCOCCOCCOCCOCCOCCOCCC(=O)NCCOCCOCCOCCOCCOCCOCCOCCOCCC(=O)N[C@@H](CC(=O)O)C(=O)N[C@H]1CSSC[C@@H](C(=O)N[C@H](C(N)=O)[C@@H](C)O)NC(=O)[C@H](Cc2c[nH]c3ccccc23)NC(=O)[C@H](C(C)C)NC(=O)[C@H](CC(C)C)NC(=O)[C@H](CCC(=O)O)NC(=O)CNC(=O)[C@H](CC(C)C)NC(=O)[C@H](Cc2c[nH]cn2)NC(=O)[C@H](Cc2c[nH]c3ccccc23)NC(=O)[C@H](C)NC1=O)[C@@H](C)CC)[C@@H](C)CC [Compound 152] | Weak Binding
CC[C@H](C)[C@H](NC(=O)[C@H](Cc1c[nH]c2ccccc12)NC(=O)[C@H](CCC(=O)O)NC(=O)[C@H](CCCCN)NC(=O)[C@H](CC(=O)O)NC(C)=O)C(=O)N[C@@H](CC(C)C)C(=O)N[C@@H](CCC(N)=O)C(=O)N[C@@H](CCCCN)C(=O)N[C@H](C(=O)N[C@@H](Cc1ccc(O)cc1)C(=O)N[C@@H](CCC(=O)O)C(=O)N[C@H](C(=O)N[C@@H](CCSC)C(=O)N[C@@H](CCCNC(=N)N)C(=O)N[C@@H](CC(C)C)C(=O)N[C@@H](CC(C)C)C(=O)N[C@@H](CC(=O)O)C(=O)N[C@@H](CCC(=O)O)C(=O)N[C@@H](CC(C)C)C(=O)NCC(=O)NCCOCCOCCOCCOCCOCCOCCOCCOCCC(=O)NCCOCCOCCOCCOCCOCCOCCOCCOCCC(=O)N[C@@H](CC(=O)O)C(=O)N[C@H]1CSSC[C@@H](C(=O)N[C@H](C(N)=O)[C@@H](C)O)NC(=O)[C@H](Cc2c[nH]c3ccccc23)NC(=O)[C@H](C(C)C)NC(=O)[C@H](CC(C)C)NC(=O)[C@H](CCC(=O)O)NC(=O)CNC(=O)[C@H](CC(C)C)NC(=O)[C@H](Cc2c[nH]cn2)NC(=O)[C@H](Cc2c[nH]c3ccccc23)NC(=O)[C@H](C)NC1=O)[C@@H](C)CC)[C@@H](C)CC [Compound 151] | Weak Binding

same assay, conditions: biotinylated Spike RBD, 1:1 global fit, read-out: Octet SARS-CoV-2 Spike RBD Protein Binding KD

Compound | Kd [pM]
Ac-DKEWILQKIYEIMRLLDELGHAEASMRVSDLIYEFMKKGPASPASPASPASDCAWHLGELVWCT (disulfide 53-63) [Compound 167] | 327
DKEWILQKIYEIMRLLDELGHAEASMRVSDLIYEFMKKGDERLLEEAERLLEEVERGQAPGQAPDCAWHLGELVWCT-NH2 (disulfide 66-76) [Compound 174] | 787
DKEWILQKIYEIMRLLDELGHAEASMRVSDLIYEFMKKGDERLLEEAERLLEEVEREAAAKEAAAKDCAWHLGELVWCT-NH2 (disulfide 68-78) [Compound 173] | 552
CC[C@H](C)[C@H](NC(=O)[C@H](CC(C)C)NC(=O)[C@H](CC(=O)O)NC(=O)[C@H](CO)NC(=O)[C@@H](NC(=O)[C@H](CCCNC(=N)N)NC(=O)[C@H](CCSC)NC(=O)[C@H](CO)NC(=O)[C@H](C)NC(=O)[C@H](CCC(=O)O)NC(=O)[C@H](C)NC(=O)[C@H](Cc1c[nH]cn1)NC(=O)CNC(=O)[C@H](CC(C)C)NC(=O)[C@H](CCC(=O)O)NC(=O)[C@H](CC(=O)O)NC(=O)[C@H](CC(C)C)NC(=O)[C@H](CC(C)C)NC(=O)[C@H](CCCNC(=N)N)NC(=O)[C@H](CCSC)NC(=O)[C@@H](NC(=O)[C@H](CCC(=O)O)NC(=O)[C@H](Cc1ccc(O)cc1)NC(=O)[C@@H](NC(=O)[C@H](CCCCN)NC(=O)[C@H](CCC(N)=O)NC(=O)[C@H](CC(C)C)NC(=O)[C@@H](NC(=O)[C@H](Cc1c[nH]c2ccccc12)NC(=O)[C@H](CCC(=O)O)NC(=O)[C@H](CCCCN)NC(=O)[C@H](CC(=O)O)NC(C)=O)[C@@H](C)CC)[C@@H](C)CC)[C@@H](C)CC)C(C)C)C(=O)N[C@@H](Cc1ccc(O)cc1)C(=O)N[C@@H](CCC(=O)O)C(=O)N[C@@H](Cc1ccccc1)C(=O)N[C@@H](CCSC)C(=O)N[C@@H](CCCCN)C(=O)N[C@@H](CCCCN)C(=O)NCC(=O)NCCOCCOCCOCCOCCOCCOCCOCCOCCC(=O)NCCOCCOCCOCCOCCOCCOCCOCCOCCC(=O)NCCOCCOCCOCCOCCOCCOCCOCCOCCC(=O)N[C@@H](CC(=O)O)C(=O)N[C@H]1CSSC[C@@H](C(=O)N[C@H](C(=O)O)[C@@H](C)O)NC(=O)[C@H](Cc2c[nH]c3ccccc23)NC(=O)[C@H](C(C)C)NC(=O)[C@H](CC(C)C)NC(=O)[C@H](CCC(=O)O)NC(=O)CNC(=O)[C@H](CC(C)C)NC(=O)[C@H](Cc2c[nH]cn2)NC(=O)[C@H](Cc2c[nH]c3ccccc23)NC(=O)[C@H](C)NC1=O [Compound 168] | 463
Ac-DKEWILQKIYEIMRLLDELGHAEASMRVSDLIYEFMKKGGGGGGGGGDCAWHLGELVWCT (disulfide 49-59) [Compound 166] | 444
Ac-DKEWILQKIYEIMRLLDELGHAEASMRVSDLIYEFMKKGDERLLEEAERLLEEVERPASPASPASPASDCAWHLGELVWCT (disulfide 70-80) [Compound 165] | < 1

same assay, conditions: biotinylated Spike RBD, unit pM printed in cell, read-out: Octet SARS-CoV-2 Spike RBD Protein Binding KD (cell printed in pM)

Compound | Kd [pM]
CC[C@H](C)[C@H](NC(=O)[C@H](CC(C)C)NC(=O)[C@H](CC(=O)O)NC(=O)[C@H](CO)NC(=O)[C@@H](NC(=O)[C@H](CCCNC(=N)N)NC(=O)[C@H](CCSC)NC(=O)[C@H](CO)NC(=O)[C@H](C)NC(=O)[C@H](CCC(=O)O)NC(=O)[C@H](C)NC(=O)[C@H](Cc1c[nH]cn1)NC(=O)CNC(=O)[C@H](CC(C)C)NC(=O)[C@H](CCC(=O)O)NC(=O)[C@H](CC(=O)O)NC(=O)[C@H](CC(C)C)NC(=O)[C@H](CC(C)C)NC(=O)[C@H](CCCNC(=N)N)NC(=O)[C@H](CCSC)NC(=O)[C@@H](NC(=O)[C@H](CCC(=O)O)NC(=O)[C@H](Cc1ccc(O)cc1)NC(=O)[C@@H](NC(=O)[C@H](CCCCN)NC(=O)[C@H](CCC(N)=O)NC(=O)[C@H](CC(C)C)NC(=O)[C@@H](NC(=O)[C@H](Cc1c[nH]c2ccccc12)NC(=O)[C@H](CCC(=O)O)NC(=O)[C@H](CCCCN)NC(=O)[C@@H](N)CC(=O)O)[C@@H](C)CC)[C@@H](C)CC)[C@@H](C)CC)C(C)C)C(=O)N[C@@H](Cc1ccc(O)cc1)C(=O)N[C@@H](CCC(=O)O)C(=O)N[C@@H](Cc1ccccc1)C(=O)N[C@@H](CCSC)C(=O)N[C@@H](CCCCN)C(=O)N[C@@H](CCCCN)C(=O)NCC(=O)NCC(=O)NCC(=O)NCC(=O)N[C@@H](CC(=O)O)C(=O)N[C@H]1CSSC[C@@H](C(=O)N[C@H](C(=O)O)[C@@H](C)O)NC(=O)[C@H](Cc2c[nH]c3ccccc23)NC(=O)[C@H](C(C)C)NC(=O)[C@H](CC(C)C)NC(=O)[C@H](CCC(=O)O)NC(=O)CNC(=O)[C@H](CC(C)C)NC(=O)[C@H](Cc2c[nH]cn2)NC(=O)[C@H](Cc2c[nH]c3ccccc23)NC(=O)[C@H](C)NC1=O [Compound 106] | < 1
CC[C@H](C)[C@H](NC(=O)[C@H](CC(C)C)NC(=O)[C@H](CC(=O)O)NC(=O)[C@H](CO)NC(=O)[C@@H](NC(=O)[C@H](CCCNC(=N)N)NC(=O)[C@H](CCSC)NC(=O)[C@H](CO)NC(=O)[C@H](C)NC(=O)[C@H](CCC(=O)O)NC(=O)[C@H](C)NC(=O)[C@H](Cc1c[nH]cn1)NC(=O)CNC(=O)[C@H](CC(C)C)NC(=O)[C@H](CCC(=O)O)NC(=O)[C@H](CC(=O)O)NC(=O)[C@H](CC(C)C)NC(=O)[C@H](CC(C)C)NC(=O)[C@H](CCCNC(=N)N)NC(=O)[C@H](CCSC)NC(=O)[C@@H](NC(=O)[C@H](CCC(=O)O)NC(=O)[C@H](Cc1ccc(O)cc1)NC(=O)[C@@H](NC(=O)[C@H](CCCCN)NC(=O)[C@H](CCC(N)=O)NC(=O)[C@H](CC(C)C)NC(=O)[C@@H](NC(=O)[C@H](Cc1c[nH]c2ccccc12)NC(=O)[C@H](CCC(=O)O)NC(=O)[C@H](CCCCN)NC(=O)[C@@H](N)CC(=O)O)[C@@H](C)CC)[C@@H](C)CC)[C@@H](C)CC)C(C)C)C(=O)N[C@@H](Cc1ccc(O)cc1)C(=O)N[C@@H](CCC(=O)O)C(=O)N[C@@H](Cc1ccccc1)C(=O)N[C@@H](CCSC)C(=O)N[C@@H](CCCCN)C(=O)N[C@@H](CCCCN)C(=O)NCC(=O)N[C@@H](CCC(N)=O)C(=O)N[C@@H](C)C(=O)N1CCC[C@H]1C(=O)N[C@@H](CC(=O)O)C(=O)N[C@H]1CSSC[C@@H](C(=O)N[C@H](C(=O)O)[C@@H](C)O)NC(=O)[C@H](Cc2c[nH]c3ccccc23)NC(=O)[C@H](C(C)C)NC(=O)[C@H](CC(C)C)NC(=O)[C@H](CCC(=O)O)NC(=O)CNC(=O)[C@H](CC(C)C)NC(=O)[C@H](Cc2c[nH]cn2)NC(=O)[C@H](Cc2c[nH]c3ccccc23)NC(=O)[C@H](C)NC1=O [Compound 108] | < 1
CCCC[C@H](NC(=O)[C@H](CCC(=O)O)NC(=O)[C@H](CC(=O)O)NC(=O)[C@H](CC(C)C)NC(=O)[C@H](CC(C)C)NC(=O)[C@H](CCCNC(=N)N)NC(=O)[C@H](CCSC)NC(=O)[C@@H](NC(=O)[C@H](CCC(=O)O)NC(=O)[C@H](Cc1ccc(O)cc1)NC(=O)[C@@H](NC(=O)[C@H](CCCCN)NC(=O)[C@H](CCC(N)=O)NC(=O)[C@H](CC(C)C)NC(=O)[C@@H](NC(=O)[C@H](Cc1c[nH]c2ccccc12)NC(=O)[C@H](CCC(=O)O)NC(=O)[C@H](CCCCN)NC(=O)[C@H](CC(=O)O)NC(C)=O)[C@@H](C)CC)[C@@H](C)CC)[C@@H](C)CC)C(=O)N[C@H](Cc1c[nH]cn1)C(=O)N[C@@H](Cc1c[nH]cn1)C(=O)N[C@@H](C)C(=O)N[C@@H](CCC(=O)O)C(=O)N[C@@H](C)C(=O)N[C@@H](CO)C(=O)N[C@@H](CCSC)C(=O)N[C@@H](CCCNC(=N)N)C(=O)N[C@H](C(=O)N[C@@H](CO)C(=O)N[C@@H](CC(=O)O)C(=O)N[C@@H](CC(C)C)C(=O)N[C@H](C(=O)N[C@@H](Cc1ccc(O)cc1)C(=O)N[C@@H](CCC(=O)O)C(=O)N[C@@H](Cc1ccccc1)C(=O)N[C@@H](CCSC)C(=O)N[C@@H](CCCCN)C(=O)N[C@@H](CCCCN)C(=O)NCC(=O)O)[C@@H](C)CC)C(C)C [Compound 240] | < 1
